We go through 4 molecules from patent US20200048358A1 (ALLIGATOR BIOSCIENCE, published 2020).

The labels stand for the following.
B1: bispecific molecule 1542/1141 (bispecific antibody)
heavy: EVQLLESGGGLVQPGGSLRLSCAASGFTFGSSSMYWVRQAPGKGLEWVSGIGYYSYSTSYADSVKGRFTISRDNSKNTLYLQMNSLRAEDTAVYYCARGYPHHYFDYWGQGTLVTVSS[sequence of human IgG1 constant region omitted]
light: not shown
B2: bispecific molecule 1164/1141 (bispecific antibody)
heavy: B1 heavy with G30Y, S31G, G52Y, Y53S, Y54S, S55G, Y56G, S57Y, Y100V, H103G
light: not shown
B3: bispecific molecule 1168/1141 (bispecific antibody)
heavy: EVQLLESGGGLVQPGGSLRLSCAASGFTFSGSSMSWVRQAPGKGLEWVSSISYYGGYTYYADSVKGRFTISRDNSKNTLYLQMNSLRAEDTAVYYCARYFPHYYFDYWGQGTLVTVSS[sequence of human IgG1 constant region omitted]
light: not shown
B4: bispecific molecule 1170/1141 (as printed in Tables 10.1 and 10.2) (bispecific antibody)
heavy: EVQLLESGGGLVQPGGSLRLSCAASGFTFGGYYMSWVRQAPGKGLEWVSYIPGSGGSTYYADSVKGRFTISRDNSKNTLYLQMNSLRAEDTAVYYCARYDYYWMDYWGQGTLVTVSS[sequence of human IgG1 constant region omitted]
light: not shown

Changes are numbered by the printed parent chain.

The assay concerns the target CTLA-4 (BMS, Orencia) (human, UniProt P16410 38-152). Nature of the assay: cell-based or functional assay.
UniProt P16410, sequence (P16410 38-152 limits assumed): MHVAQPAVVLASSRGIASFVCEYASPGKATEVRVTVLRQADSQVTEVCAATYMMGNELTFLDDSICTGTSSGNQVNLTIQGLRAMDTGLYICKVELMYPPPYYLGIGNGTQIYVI
Take B1: the “Mean IL-2 level (pg/ml) induced at 1.5 nM bispecific antibody or control” value amounted to 2670 pg/mL.

As for B2, the “Mean IL-2 level (pg/ml) induced at 1.5 nM bispecific antibody or control” value came out at 5020 pg/mL. Then B3, with 2680 pg/mL; and B4, with 2580 pg/mL.
